In all, about 330,000 compounds went through this assay and about 4,200 (1.3%) were called active. The inconclusive results got no clear call from the source; some entries with a clear call stand among them for comparison. The call rests on the fitted dose curve; in most records, active means well fitted activation curve with a large enough effect; inconclusive means small, poorly fitted or top-dose-only effect; inactive means no such curve, though single readings can be large or run the other way. Potencies beside an inconclusive call are fits to weak or partial responses and may not hold up.
test: qHTS screen for small molecules that induce genotoxicity in human embryonic kidney (HEK293T) cells expressing luciferase-tagged ELG1; conditions: HEK293T ELG1-luciferase reporter, luminescence, 16 h; series mostly up to 46 µM; further: nearly all actives have a fitted effect of over 60% in size
Procedure, shortened: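 HEK293T cells expressing luciferase-tagged ELG1 were treated with compound or DMSO for 16 hr at 37°C. Luciferase activity was then read after 30 min with ONE-Glo at room temperature; rising signal flags genetic stress.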
Potency means the concentration at half of the fitted maximal effect; tags describe the fitted curve by direction and shape.

Row | Compound | Potency
1 | Cc1cc(C)n(-c2nc(-c3ccccc3)cs2)n1 | active: 18.4 µM
2 | CC(=O)c1ccc(Oc2ncnc3sccc23)cc1 | inconclusive: 16.4 µM [activator, partial curve, poor fit]
3 | Cc1ccc(N=Nc2cc(C)ccc2O)c(C)c1 | inconclusive: 18.3 µM [activator, partial curve]
4 | O=C1CCCc2c1sc1nc3n(c(=O)c21)CCCCC3 | inconclusive: 23.1 µM [activator, partial curve]
5 | Cc1n(N)c2ccccc2[n+]1CC(=O)c1ccccc1 | inactive
6 | c1ccc(-c2cn3nc4c(nc3n2)CCCC4)cc1 | active: 0.13 µM
7 | CNc1sc(C(=O)c2ccc(F)cc2)c(N)c1-c1nc2ccccc2s1 | inconclusive: 20.6 µM [activator, single point]
8 | COc1cc2c(cc1OC)-c1cc(Nc3ccc(C)cc3)nc(=O)n1CC2 | inconclusive: 13 µM [activator, partial curve, poor fit]
9 | Cc1ccc(C(=O)O/N=C(\N)Cc2cccs2)c(Cl)c1 | active: 2.06 µM
10 | Brc1ccc(-n2cnc(-c3ccccc3)c2)cc1 | inconclusive: 2.91 µM [activator, full curve]
11 | CCSc1ncc(/C=N/Nc2ccc(Cl)cc2)n1C | inconclusive: 4.61 µM [activator, full curve]
12 | Cc1cccc(/C=N\Nc2cn[nH]c(=O)c2Cl)c1 | inconclusive: 23.1 µM [activator, single point]
13 | CC(=O)n1nc(-c2ccc(C)cc2)nc1NCc1ccc(F)cc1 | inconclusive: 25.9 µM [activator, partial curve, poor fit]
14 | Cc1cccnc1NC(=O)c1ccccc1-c1ccccc1C(=O)Nc1ncccc1C | inactive
15 | O=C(Nc1ccccc1N1CCN(C(=O)c2ccccc2)CC1)c1ccccc1Cl | inactive
16 | COc1ccc(NC(=O)c2c3c(nc4ccccc24)CCC3)cc1 | inconclusive: 29.1 µM [activator, partial curve, poor fit]
17 | OCCc1ccc(-c2ccc(Cl)cc2)o1 | inconclusive: 23.1 µM [activator, partial curve, poor fit]
18 | CCc1ccc2oc(-c3cccc(N)c3)nc2c1 | inconclusive: 0.731 µM [activator, full curve, poor fit]
19 | CCOC(=O)C1CCN(c2nc3cc(OC)ccc3cc2C#N)CC1 | inactive
20 | CCN(CC)S(=O)(=O)c1ccc(C(=O)Nc2ccc(OCC(=O)N3CCOCC3)cc2)cc1 | inactive
21 | CN1c2ccsc2/C(=N/Nc2ccc(F)cc2)CS1(=O)=O | inconclusive: 11.6 µM [activator, partial curve]
